Results from paper PMC4336329 (PLoS ONE, 2015).
About 2,200 (0.71%) of roughly 310,000 compounds showed an effect of 50% or more. Effects have a minus sign here. The list shows a part of the results.

These compounds were tested against human ether-à-go-go-related gene (hERG) potassium channel (human, UniProt Q12809) (assay: primary screen, population patch clamp on CHO cells stably expressing hERG).
Chain of human ether-à-go-go-related gene (hERG) potassium channel (Q12809 whole entry, looked up): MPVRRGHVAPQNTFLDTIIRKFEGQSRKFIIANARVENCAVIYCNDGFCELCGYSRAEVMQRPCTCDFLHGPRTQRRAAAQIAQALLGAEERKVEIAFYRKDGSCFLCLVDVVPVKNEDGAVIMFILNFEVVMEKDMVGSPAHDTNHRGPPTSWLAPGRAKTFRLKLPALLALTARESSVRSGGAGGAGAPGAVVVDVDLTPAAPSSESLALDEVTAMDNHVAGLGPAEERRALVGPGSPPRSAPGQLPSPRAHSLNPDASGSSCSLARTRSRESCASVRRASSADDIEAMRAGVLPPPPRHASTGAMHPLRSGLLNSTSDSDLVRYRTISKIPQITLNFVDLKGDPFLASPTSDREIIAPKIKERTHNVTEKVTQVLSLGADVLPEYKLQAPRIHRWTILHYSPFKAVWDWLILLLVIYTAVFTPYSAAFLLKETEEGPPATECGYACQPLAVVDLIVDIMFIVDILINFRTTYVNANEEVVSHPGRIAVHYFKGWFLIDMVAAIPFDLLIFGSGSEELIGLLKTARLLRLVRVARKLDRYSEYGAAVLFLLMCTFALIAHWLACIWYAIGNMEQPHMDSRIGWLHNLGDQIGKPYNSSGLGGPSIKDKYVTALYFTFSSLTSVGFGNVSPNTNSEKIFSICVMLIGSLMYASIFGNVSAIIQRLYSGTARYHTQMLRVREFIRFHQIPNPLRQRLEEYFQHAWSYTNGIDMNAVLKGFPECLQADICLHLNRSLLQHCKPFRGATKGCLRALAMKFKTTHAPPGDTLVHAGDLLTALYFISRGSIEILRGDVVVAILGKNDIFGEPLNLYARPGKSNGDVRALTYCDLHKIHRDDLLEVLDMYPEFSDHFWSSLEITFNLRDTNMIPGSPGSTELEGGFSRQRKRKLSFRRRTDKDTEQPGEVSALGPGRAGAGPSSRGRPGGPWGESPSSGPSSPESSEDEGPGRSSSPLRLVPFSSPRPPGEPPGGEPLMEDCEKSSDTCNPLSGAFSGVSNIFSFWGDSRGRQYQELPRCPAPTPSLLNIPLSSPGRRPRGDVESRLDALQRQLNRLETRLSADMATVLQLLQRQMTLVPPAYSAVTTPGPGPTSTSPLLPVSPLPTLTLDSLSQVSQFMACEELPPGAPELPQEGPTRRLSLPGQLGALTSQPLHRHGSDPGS

| SMILES | hERG current change (%, negative = inhibition) at 1uM |
| --- | --- |
| CC1CCN(C2=C(NS(=O)(=O)c3ccc(Br)cc3)C(=O)c3ccccc3C2=O)CC1 | 10.2% |
| O=C1CC(C(=O)NCc2ccccc2)N=C(N2CCCCC2)N1 (stereo not drawn) | 1.24% |
| CN1CCN(c2ccc(S(=O)(=O)N3CCCCC3)cn2)CC1 | 2.76% |
| O=C(O)CCc1ccc(-c2ccccc2)n1CC(=O)O | 11.5% |
| CCOc1ccc(-c2c(C)n([O-])c3c([n+]2=O)CCCC3)cc1 | 2.32% |
| O=C(CSc1nccn(-c2ccc(Br)cc2)c1=O)Nc1ccccc1F | 14.6% |
| N#C/C(=C\c1cc([N+](=O)[O-])c(N2CCCCC2)cc1N1CCCCC1)c1nn(-c2ccccc2)c(N)c1C#N | 9.31% |
| CC/C(=N\NC(=O)c1ccoc1C)c1ccc(C)o1 | 9.78% |
| Cc1ccccc1-n1c(O)c(C(c2ccncc2)c2c(O)n(-c3ccccc3C)c(=O)[nH]c2=O)c(=O)[nH]c1=O | 10.7% |
| N#CCSc1nc2c(c(=O)n1Cc1ccco1)C1(CCCC1)Cc1ccccc1-2 | 17.6% |
| COc1ccc(/C=C(\NC(=O)c2ccc([N+](=O)[O-])cc2)C(=O)NCCCn2ccnc2)cc1 | -14.4% |
| COc1cc2c(cc1OC)CN(C(=O)c1ccc(S(=O)(=O)N3CCCC3)cc1)CC2 | 12.2% |
| Cc1ccc(C)c(NC(=S)NCC(c2ccccc2)N(C)C)c1 (stereo not drawn) | -1.39% |
| COc1ccccc1CN1CCCCC1C(=O)O (stereo not drawn) | -0.838% |
| O=C1[C@@H]2Cc3c([nH]c4ccccc34)CN2C(=O)CN1CCCO | 15.4% |
| Clc1ccc(C(c2ccccc2)c2ncc[nH]2)cc1 (stereo not drawn) | 11.2% |
| Cl.OC(COc1cccc(OCC(O)CN2CCOCC2)c1)CN1CCOCC1 (stereo not drawn) | 4.98% |
| COc1cc(/C=C(\C#N)C(=O)c2ccc(O)c(O)c2)cc(I)c1O | 13.3% |
| Cc1nc(CNC(=O)c2cc(COc3ccc(F)cc3Cl)on2)cs1 | 3.49% |
| C1=Nc2c(Nc3ccccc3)ncnc2Oc2ccccc21 | 4.25% |
| CCN(CC)c1ccc(/C=C2\C(=O)NC(=S)N(c3ccc(OC)cc3OC)C2=O)o1 | 4.08% |
| Cc1ccc(CN2CCS(=O)(=O)CC2)o1 | 9.98% |

| SMILES | hERG current change (%, negative = inhibition) at 1uM |
| --- | --- |
| CCOn1c(=O)c(=O)n(OCc2ccccc2)c2ccccc21 | 1.96% |
| Cc1cccc(OCCNc2ccc([N+](=O)[O-])cn2)c1 | 5.54% |
| Cc1noc(C)c1COc1ccc(C(=O)N2CCN(c3ccccc3F)CC2)cc1 | 0.836% |
| O=C(NC(=S)Nc1ccc(N2CCOCC2)cc1)c1ccc2c(c1)OCCO2 | 9.38% |
| Cc1ccc(Nc2nc(-c3ccccc3)c(CC(=O)O)s2)cc1 | 21% |
| Cc1ccc2[nH]c(C(=O)O)c(NC(=O)[C@@H]3C[C@@H]3c3ccccc3)c2c1 | 7.56% |
| COc1cccc(N(C(=O)CNC(=O)c2ccco2)C(C(=O)NC2CCCCC2)c2cccnc2)c1 (stereo not drawn) | 13.7% |
| CCn1c(C)nc2cc(C(=O)NNC(=O)CCC3CCCC3)ccc21 | 13.9% |
| CCC(=O)N1CCc2cc(S(=O)(=O)NC(C(=O)NC3CCCc4ccccc43)C(C)C)ccc21 (stereo not drawn) | 4.53% |
| O=C(N1CCCCCC1)N1CCN(S(=O)(=O)N2CCOCC2)CC1 | 0.917% |
| CCN(C(=O)COc1ccccc1)c1nnc(-c2cccnc2)s1 | 11% |
| Br.CCCCN1C2=NCCCN2c2cc(C)c(C)cc21 | -39.2% |
| CN1C(=O)/C(=C/c2cc3c(cc2Br)OCO3)NC1=S | 4.81% |
| O=C(c1ccccc1F)N1CCC(O)(c2cccnc2)CC1 | 7.28% |
| O=C1NC(c2ccccc2)=C(c2ccc3ccccc3n2)C(c2ccccc2)N1 (stereo not drawn) | 2.29% |
| CCCN1C(=O)/C(=C/c2ccc(C)s2)NC1=S | 12.5% |
| Cc1ccc(CCNC(=O)C2CCCN(c3nc4ccccc4o3)C2)cc1 (stereo not drawn) | -3.2% |
| NC(=O)c1ccc(Oc2ccc(Cl)c3ccccc23)c([N+](=O)[O-])c1 | 12.3% |
| O=S(=O)(/N=S1/CC=CCN1S(=O)(=O)c1ccccc1)c1ccccc1 (stereo not drawn) | 13.5% |
| CC1CCCC(C)N1C(=O)COC(=O)CNC(=O)c1ccccc1F (stereo not drawn) | 17.3% |
| CSc1nnc(-c2ccc(C(F)(F)F)cn2)o1 | -7.32% |
| CCOC(=O)C1=C(CNCc2ccc(F)cc2)NC(=O)NC1c1cccc([N+](=O)[O-])c1 (stereo not drawn) | -2.87% |

| SMILES | hERG current change (%, negative = inhibition) at 1uM |
| --- | --- |
| C=CCn1c(SCc2cc(C(=O)OC)c(C)o2)nnc1-c1ccncc1 | 6.09% |
| CC(CCCC(C)(C)O)NC(=O)c1cc(COc2ccc3ncccc3c2)on1 (stereo not drawn) | 2.77% |
| CC(C(=O)NCc1cccc(Cl)c1)N1C(=O)c2ccccc2C1=O (stereo not drawn) | 11.7% |
| Cc1ccccc1NC(=O)Cc1c[nH]c2ccccc12 | 11.3% |
| Cc1cccc(CN2CCc3c(OCC(=O)N4CCCc5ccccc54)cccc3C2=O)c1 | 9.31% |
| Cc1noc(C)c1CSCC(=O)Nc1ccc(S(C)(=O)=O)cc1 | 15.3% |
| O=C(Nc1ccc(F)cc1)c1cc2cc(Cl)ccc2[nH]1 | 8.87% |
| O=C(Nc1nnc(COc2ccccc2)s1)C1CCN(S(=O)(=O)c2ccc(Cl)cc2)CC1 | 2.84% |
| COc1ccc(OC)c(/C=C/C(=O)OCC(=O)Nc2cccc(Oc3ccccc3)c2)c1 | 18% |
| O=[N+]([O-])c1cccc(N/N=C/c2cccc3ccccc23)c1 | 4.29% |
| C=CCn1c(SCC(=O)Nc2sc(C)c(C)c2C(=O)OCC)nnc1-c1sc(N)nc1C | 5.02% |
| CSCc1ccc(C(=O)NCc2ccc(F)cc2)cc1 | 15.6% |
| CN(c1ccc(C(=O)NCc2ccccn2)cc1)S(=O)(=O)c1ccc(Cl)cc1 | 9.65% |
| Cc1cccn2c(=O)c(C=NCCO)c(NCc3ccco3)nc12 | 1.45% |
| O=C(NCCN1CCOCC1)/C(=C/c1ccccc1)NC(=O)c1ccccc1 | 3.35% |
| CCc1ccc2n(-c3ccc(OC)cc3)c([S-])c(C(=O)Nc3cc(C)cc(C)c3)[n+]2c1 | 13.7% |
| COCCN(C(=O)CSc1nnc(-c2ccco2)n1C)c1c(N)n(CC(C)C)c(=O)[nH]c1=O | 8.54% |
| Cc1nn(C2CCS(=O)(=O)C2)c(Cl)c1/C=C/C(=O)OCC(=O)Nc1ccccc1OC(F)F (stereo not drawn) | 13.7% |
| O=C(COC(=O)Cc1ccsc1)Nc1cccc(F)c1 | 5.14% |
| COc1ccc(C(=O)N2CCN(c3cnn(-c4ccccc4)c(=O)c3Cl)CC2)cc1 | -38.5% |
| CC(=O)c1ccc(OCCCC(=O)OCC(=O)Nc2c(C)nn(-c3ccccc3)c2C)cc1 | 7.67% |
| COc1ccc(C(=O)N2CCCC(O)C2)cc1OC1CCN(C(C)C)CC1 (stereo not drawn) | 19.9% |

| SMILES | hERG current change (%, negative = inhibition) at 1uM |
| --- | --- |
| CC1=NN(c2ccccc2)C(=O)/C1=C\c1cn(C)c2ccccc12 | 7.98% |
| COCC(C)NC(C(=O)Nc1cccc(C(C)=O)c1)c1ccccc1 (stereo not drawn) | 7.18% |
| COc1ccc(Nc2nc(N)c(C(=O)c3ccc(OC)cc3)s2)cc1 | -5.28% |
| COc1cccc(-c2ccc(=O)n(CC(=O)NCCN3CCOCC3)n2)c1 | -8.11% |
| CC(C)C1S/C(=N/N=C/c2cccs2)NC1=O (stereo not drawn) | 12.5% |
| CC(CCO)Nc1nc2c(c(=O)n(C)c(=O)n2C)n1Cc1cccc(Br)c1 (stereo not drawn) | 13% |
| CCOc1ccc(C2CC(c3cccc(OC)c3OC)n3nnnc3N2)cc1Cl (stereo not drawn) | 10.5% |
| COc1ccc(Cl)cc1NC(=O)CSc1nc(Nc2ccccc2)nc(N2CCOCC2)n1 | 10% |
| CN(CC(=O)Nc1ccc2c(c1)CCC2)CC(=O)Nc1ccccc1Br | 7.16% |
| NC(=O)C1CCN(C(=O)C2(NC(=O)Nc3cccc(F)c3)CCCCC2)CC1 | 14.7% |
| CCCc1nc2sc3c(=O)n(N)cnc3c2c2c1COC(C)(C)C2 | 7.5% |
| CCOC(=O)C1C2NC(=O)N(Cc3ccccc3)C1(C)Oc1c(OC)cccc12 (stereo not drawn) | 11.5% |
| Cc1ccccc1Oc1nc(-c2ccccn2)nc2ccccc12 | 2.99% |
| O=C(CN1CCCCC1)NC(=O)NC1CCCC1 | 9.34% |
| CC(C)CC1(C)NC(=O)N(Cc2cc([N+](=O)[O-])cc3c2OCOC3)C1=O (stereo not drawn) | 9.47% |
| CC1CCN(CCCNC(=O)c2ccc3c(=O)n(CCc4ccccc4)c(=O)[nH]c3c2)CC1 | 10.6% |
| Cc1nc2ccccc2c2oc(C(=O)NCc3ccccn3)cc12 | -9.12% |
| Cc1ccc(NS(=O)(=O)N(C)C)cc1 | 9.86% |
| Cc1cc(Cl)nc(Cl)c1C(=O)NC(=O)NCCC(C)C | 2.47% |
| CCOC(=O)N1CCC(NCCNC(=O)c2cccs2)CC1 | 5.13% |
| Cc1cccc(C(=O)NC2CCCCCCC2)c1 | 10.2% |
